# Measured values from the supplement of paper PMC12067230.
# Single values of this set are uncertain.
# Experiment: amyloid nucleation score relative to library mode (yeast Sup35 reporter selection) (log enrichment difference); higher = more amyloid nucleation; sequences are the first 22 residues of the Bri2 peptide extended by up to 12 random residues
# Conditions: random library (experiment): 1;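 active = nucleation score significantly above 0 at FDR 0.05; inactive = not significantly above 0 or absent from output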
# 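Also: [psi-pin-] Saccharomyces cerevisiae expressing SupN fusions, induced by 100 µM Cu2SO4, selected 7 d at 30 °C without adenine and uracil, scored by deep sequencing of output versus input.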
row,Sequence,amyloid nucleation score
1,EASNCFAIRHFENKFAVETLICGGNLSLGHTLR,4.62
2,EASNCFAIRHFENKFAVETLICGGPSLWRAVRA,inactive
3,EASNCFAIRHFENKFAVETLICGGQSWLVYRDAV,-0.54
4,EASNCFAIRHFENKFAVETLICGGRFATWFSHLG,inactive
5,EASNCFAIRHFENKFAVETLICGGRGNPYRFK,0.713
6,EASNCFAIRHFENKFAVETLICGGRKRTM,3.42
7,EASNCFAIRHFENKFAVETLICGGRRVGLSEGW,inactive
8,EASNCFAIRHFENKFAVETLICGGRWPWQGAWAC,inactive
9,EASNCFAIRHFENKFAVETLICGGSKDL,inactive
10,EASNCFAIRHFENKFAVETLICGGSLKWL,-0.0385
11,EASNCFAIRHFENKFAVETLICGGSVARPCRVRG,inactive
12,EASNCFAIRHFENKFAVETLICGGSVGARGTSSA,inactive
13,EASNCFAIRHFENKFAVETLICGGSVGPFEGCEG,inactive
14,EASNCFAIRHFENKFAVETLICGGTNLIVWTLVG,3.84
15,EASNCFAIRHFENKFAVETLICGGTSVRSKGMWR,inactive
16,EASNCFAIRHFENKFAVETLICGGTVRVRAKS,inactive
17,EASNCFAIRHFENKFAVETLICGGVARRFLLCC,inactive
18,EASNCFAIRHFENKFAVETLICGGVDSVSTGLEP,inactive
19,EASNCFAIRHFENKFAVETLICGGVESRRGGDVG,inactive
20,EASNCFAIRHFENKFAVETLICGGVPLALASWIR,inactive
21,EASNCFAIRHFENKFAVETLICGGVVIGSVRAPV,7.27
22,EASNCFAIRHFENKFAVETLICGGWRRPFLERDL,inactive

row,Sequence,amyloid nucleation score
1,EASNCFAIRHFENKFAVETLICGGWSQGDGLR,2.72
2,EASNCFAIRHFENKFAVETLICGHCSFISLVRWT,5.17
3,EASNCFAIRHFENKFAVETLICGHDSMPSALGRS,inactive
4,EASNCFAIRHFENKFAVETLICGHEPCTFTRVGS,3.8
5,EASNCFAIRHFENKFAVETLICGHF,inactive
6,EASNCFAIRHFENKFAVETLICGHGMLRCRLSRR,4.63
7,EASNCFAIRHFENKFAVETLICGHGNLQLAAWFW,1.47
8,EASNCFAIRHFENKFAVETLICGHKSDDSSDRQM,inactive
9,EASNCFAIRHFENKFAVETLICGHLSCMMVCCQA,3.87
10,EASNCFAIRHFENKFAVETLICGHMSLIGIWKVK,inactive
11,EASNCFAIRHFENKFAVETLICGHRLVLL,inactive
12,EASNCFAIRHFENKFAVETLICGHRSL,inactive
13,EASNCFAIRHFENKFAVETLICGHRTLQKGRCAV,-0.809
14,EASNCFAIRHFENKFAVETLICGHSPEPYRVYL,-0.0194
15,EASNCFAIRHFENKFAVETLICGHSYTSYKIYAV,inactive
16,EASNCFAIRHFENKFAVETLICGHTGSRYETL,inactive
17,EASNCFAIRHFENKFAVETLICGHTLQSQTGEVR,inactive
18,EASNCFAIRHFENKFAVETLICGHVPYILCRMTY,3.79
19,EASNCFAIRHFENKFAVETLICGHW,4.55
20,EASNCFAIRHFENKFAVETLICGHWPPLWWANRA,3.25
21,EASNCFAIRHFENKFAVETLICGHYLGRWFVVLV,0.645
22,EASNCFAIRHFENKFAVETLICGHYRNKQWVRGV,inactive

row,Sequence,amyloid nucleation score
1,EASNCFAIRHFENKFAVETLICGI,inactive
2,EASNCFAIRHFENKFAVETLICGIAVGPSLWSCG,2.65
3,EASNCFAIRHFENKFAVETLICGIELSPDLGQCV,inactive
4,EASNCFAIRHFENKFAVETLICGILSAGRMMRAR,inactive
5,EASNCFAIRHFENKFAVETLICGIMCLRCPGQIL,3.46
6,EASNCFAIRHFENKFAVETLICGIMGCWSVSSEK,8.94
7,EASNCFAIRHFENKFAVETLICGIMKGSAEYSGF,-0.0664
8,EASNCFAIRHFENKFAVETLICGIPRGVIDSKFL,inactive
9,EASNCFAIRHFENKFAVETLICGIQWKPEGAVSA,inactive
10,EASNCFAIRHFENKFAVETLICGIR,inactive
11,EASNCFAIRHFENKFAVETLICGIRHVHMGLERA,-0.0385
12,EASNCFAIRHFENKFAVETLICGIRS,inactive
13,EASNCFAIRHFENKFAVETLICGISLGHASSQPR,5.11
14,EASNCFAIRHFENKFAVETLICGISWSLWKEGRW,inactive
15,EASNCFAIRHFENKFAVETLICGIVLTGVKPRWP,2.42
16,EASNCFAIRHFENKFAVETLICGIWTVRTLRFMR,3.72
17,EASNCFAIRHFENKFAVETLICGIYKTYRDVP,2.92
18,EASNCFAIRHFENKFAVETLICGIYLLM,-0.0385
19,EASNCFAIRHFENKFAVETLICGK,inactive
20,EASNCFAIRHFENKFAVETLICGKAAAG,inactive

# Same assay, conditions: random library (experiment): 2
row,Sequence,amyloid nucleation score
1,EASNCFAIRHFENKFAVETLICGGRDWFGVSGLS,4.11
2,EASNCFAIRHFENKFAVETLICGGVFSRS,inactive
3,EASNCFAIRHFENKFAVETLICGGWSH,4.13
4,EASNCFAIRHFENKFAVETLICGHLLVWMVHGRV,inactive
5,EASNCFAIRHFENKFAVETLICGHRGVHCRFHAM,-0.293
6,EASNCFAIRHFENKFAVETLICGHVRNGREFIFL,1.2
7,EASNCFAIRHFENKFAVETLICGICCYFSMFVKT,inactive
8,EASNCFAIRHFENKFAVETLICGICGRNNECVSR,5.46
9,EASNCFAIRHFENKFAVETLICGIFCKYFCVCSR,inactive
10,EASNCFAIRHFENKFAVETLICGIFDLCC,7.69
11,EASNCFAIRHFENKFAVETLICGIFITDSRLLE,3.13
12,EASNCFAIRHFENKFAVETLICGIFVRVEHGFHE,5.47
13,EASNCFAIRHFENKFAVETLICGIFYHLI,inactive
14,EASNCFAIRHFENKFAVETLICGIMMRS,inactive
15,EASNCFAIRHFENKFAVETLICGINASFRITNQV,4.83
16,EASNCFAIRHFENKFAVETLICGINYWHLFQGVG,inactive
17,EASNCFAIRHFENKFAVETLICGINYYCVCWGVT,inactive
18,EASNCFAIRHFENKFAVETLICGIRLLWKRRAVR,inactive
19,EASNCFAIRHFENKFAVETLICGISG,inactive
20,EASNCFAIRHFENKFAVETLICGISTTISGSTGA,5.28
21,EASNCFAIRHFENKFAVETLICGIVIFTTSVDDK,8
22,EASNCFAIRHFENKFAVETLICGIVYFLHDWRCC,4.05
23,EASNCFAIRHFENKFAVETLICGIWPSGDSMS,8.19

# Same assay, conditions: random library (experiment): 3
row,Sequence,amyloid nucleation score
1,EASNCFAIRHFENKFAVETLICGGQTSGYSRRDG,0.475
2,EASNCFAIRHFENKFAVETLICGGRKGAYVGR,inactive
3,EASNCFAIRHFENKFAVETLICGGRNGMNRLWFT,inactive
4,EASNCFAIRHFENKFAVETLICGGSCFTCSIGSW,8.49
5,EASNCFAIRHFENKFAVETLICGGSCNSHLFLYA,inactive
6,EASNCFAIRHFENKFAVETLICGGSQEIMGRVTA,inactive
7,EASNCFAIRHFENKFAVETLICGGTHARLVGDWR,inactive
8,EASNCFAIRHFENKFAVETLICGGWCCASLVTPL,8.14
9,EASNCFAIRHFENKFAVETLICGGWRTGGSRLDA,2.63
10,EASNCFAIRHFENKFAVETLICGHALRRSWRLGA,0.0367
11,EASNCFAIRHFENKFAVETLICGHAWWPLLFAKG,inactive
12,EASNCFAIRHFENKFAVETLICGHDPTLPAERVV,inactive
13,EASNCFAIRHFENKFAVETLICGHEG,inactive
14,EASNCFAIRHFENKFAVETLICGHGLIGVVCHAK,inactive
15,EASNCFAIRHFENKFAVETLICGHGVNVCFIIE,3.19
16,EASNCFAIRHFENKFAVETLICGHKRSSPSILFM,inactive

row,Sequence,amyloid nucleation score
1,EASNCFAIRHFENKFAVETLICGHLACGTSHAVY,1.19
2,EASNCFAIRHFENKFAVETLICGHMCRLCWKRRL,inactive
3,EASNCFAIRHFENKFAVETLICGHRRRVRSRPEW,inactive
4,EASNCFAIRHFENKFAVETLICGHVCSCPVYNRH,8.66
5,EASNCFAIRHFENKFAVETLICGHWDYAA,inactive
6,EASNCFAIRHFENKFAVETLICGHYMCCSISCAL,5.63
7,EASNCFAIRHFENKFAVETLICGIAIGHGARRLG,inactive
8,EASNCFAIRHFENKFAVETLICGIHWVSVGEPGG,2.44
9,EASNCFAIRHFENKFAVETLICGIIYWRPCQQVL,inactive
10,EASNCFAIRHFENKFAVETLICGILIRLCRGSRG,inactive
11,EASNCFAIRHFENKFAVETLICGIRHWQPCASRE,5.33
12,EASNCFAIRHFENKFAVETLICGIRMRVTFFLPG,inactive
13,EASNCFAIRHFENKFAVETLICGISCAA,0.52
14,EASNCFAIRHFENKFAVETLICGISITMSQCRVV,inactive
15,EASNCFAIRHFENKFAVETLICGISRVVKENRAA,inactive
16,EASNCFAIRHFENKFAVETLICGIVQRVEWGFGY,inactive
